Reference: article PMC4336329 (PLoS ONE, 2015)
The campaign covered roughly 310,000 compounds. About 2,200 (0.71%) showed an effect of 50% or more. The effect is printed as a negative number. The list shows a part of the results.

The molecules below were run against human ether-à-go-go-related gene (hERG) potassium channel (human, UniProt Q12809) (assay: primary screen, population patch clamp on CHO cells stably expressing hERG).
Chain of human ether-à-go-go-related gene (hERG) potassium channel (Q12809 whole entry, looked up): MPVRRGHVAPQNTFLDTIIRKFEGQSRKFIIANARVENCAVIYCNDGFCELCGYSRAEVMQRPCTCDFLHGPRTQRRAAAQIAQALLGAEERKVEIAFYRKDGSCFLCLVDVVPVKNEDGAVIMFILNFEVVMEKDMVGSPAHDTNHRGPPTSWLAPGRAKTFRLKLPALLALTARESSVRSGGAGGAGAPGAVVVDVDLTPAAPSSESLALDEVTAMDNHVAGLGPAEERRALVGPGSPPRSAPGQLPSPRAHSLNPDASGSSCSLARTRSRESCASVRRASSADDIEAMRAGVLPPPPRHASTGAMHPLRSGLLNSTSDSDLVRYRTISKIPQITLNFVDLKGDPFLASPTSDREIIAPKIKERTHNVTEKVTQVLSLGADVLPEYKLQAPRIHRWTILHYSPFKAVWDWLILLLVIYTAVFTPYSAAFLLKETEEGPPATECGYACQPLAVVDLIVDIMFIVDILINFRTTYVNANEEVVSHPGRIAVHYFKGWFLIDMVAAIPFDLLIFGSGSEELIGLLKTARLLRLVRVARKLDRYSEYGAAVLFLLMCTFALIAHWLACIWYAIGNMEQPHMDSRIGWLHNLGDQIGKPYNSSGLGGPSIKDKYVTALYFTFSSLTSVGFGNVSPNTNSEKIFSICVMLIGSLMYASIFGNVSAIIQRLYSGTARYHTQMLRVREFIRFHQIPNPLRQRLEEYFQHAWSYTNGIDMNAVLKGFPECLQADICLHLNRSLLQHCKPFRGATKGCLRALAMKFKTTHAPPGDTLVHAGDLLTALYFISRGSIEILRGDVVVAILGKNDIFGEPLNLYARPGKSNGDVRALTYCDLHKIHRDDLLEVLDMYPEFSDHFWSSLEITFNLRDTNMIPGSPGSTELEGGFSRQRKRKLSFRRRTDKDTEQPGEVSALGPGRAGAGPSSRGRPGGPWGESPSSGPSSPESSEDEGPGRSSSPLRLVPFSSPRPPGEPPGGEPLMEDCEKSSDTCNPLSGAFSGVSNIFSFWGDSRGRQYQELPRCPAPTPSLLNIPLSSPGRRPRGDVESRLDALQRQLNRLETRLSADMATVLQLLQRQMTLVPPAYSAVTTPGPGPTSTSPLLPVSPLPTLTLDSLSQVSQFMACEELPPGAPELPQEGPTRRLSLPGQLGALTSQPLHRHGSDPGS

| SMILES | hERG current change (%, negative = inhibition) at 1uM [%] |
| --- | --- |
| CCCCNC(=O)c1cc(S(=O)(=O)N2CCCCC2)oc1C | -0.539 |
| C/C(=N\NC(=O)c1ccccn1)c1ccc(Cl)cc1 | 11.1 |
| CCOC(=O)C(C)NC(=O)CCc1nnc2ccc(N3CCCCC3)nn12 (centres unmarked) | 3.73 |
| CCc1ccc(NC(=O)c2cc(-c3ccc4c(c3)OCO4)on2)cc1 | 7.2 |
| COc1cc(NC(=O)Cc2ccccc2OC)cc(OC)c1 | -7.74 |
| COc1cccc(N=c2oc3ccccc3cc2-c2nc3ccccc3[nH]2)c1 | 16.7 |
| NC(=O)COC(=O)c1c2c(nc3ccccc13)CCCC2 | -5.13 |
| C=CCn1c(O)c(N=NC(=O)c2ccc3c(c2)OCO3)c2ccccc21 | 10 |
| CC(C)n1c(N2CCN(CC(=O)Nc3ccc4c(c3)OCCO4)CC2)nc2ccccc21 | -21.4 |
| O=C(Nc1ccc(F)cc1)N(Cc1nnc2n1CCCCC2)c1ccccc1 | 9.42 |
| Cc1sc(NC(=O)C2CCCCC2C(=O)O)c(C(N)=O)c1-c1ccc(C(C)C)cc1 (centres unmarked) | 7.34 |
| CCC(=O)Nc1ccc(OCC2CCCO2)cc1 (centres unmarked) | 10.9 |
| COC1=CCC2([N+](=O)[O-])CN(CC(=O)O)CC1([N+](=O)[O-])C2 (centres unmarked) | 8.97 |
| O=C(O)CSc1ncnc2scc(-c3ccccc3)c12 | 5.47 |
| C=C1N(c2cccc(Cl)c2)C(=O)OC1(C)C | 8.03 |
| COc1cc(C(=O)Nc2nc(C)c(Cc3ccc4c(c3)OCO4)s2)cc(OC)c1OC | 5.8 |
| CCOC(=O)c1nc2sc3c(c2c(=O)[nH]1)CCC(C)C3 (centres unmarked) | 6.58 |
| O=C(OCC(O)COc1ccccc1)c1ccc([N+](=O)[O-])cc1 (centres unmarked) | 10.3 |
| CN(CC(=O)Nc1cccc(F)c1)C(=O)c1cc(=O)[nH]c2ccccc12 | 5.29 |
| CCCC(=O)Nc1ccc(Cl)c(NC(=O)c2ccc(Br)o2)c1 | -7.58 |
| Cn1c2ccccc2c(=O)c2c(=O)n(Cc3ccco3)c(-c3ccc(Cl)cc3Cl)nc21 | 15.3 |
| COc1ccc(C(=O)OCC(=O)N(C)C2CCS(=O)(=O)C2)cc1Br (centres unmarked) | 3.84 |
| COc1cc(C)c(CNCCc2c[nH]c3ccccc23)cc1C.O=C(O)C(=O)O | 2.06 |

| SMILES | hERG current change (%, negative = inhibition) at 1uM [%] |
| --- | --- |
| COc1ccc(NC(=O)c2cncn2-c2ccccc2)cc1 | 18.4 |
| CCNS(=O)(=O)c1ccc(NC(=S)NCC2CCCO2)cc1 (centres unmarked) | 14.6 |
| Cc1cc(N)n(-c2ccc3ccccc3c2)n1 | 7.74 |
| C=CCN1C(=O)CS/C1=N\N=C\c1cccc([N+](=O)[O-])c1 | 8.94 |
| CCOP(=O)(OCC)C(Nc1ccccc1)c1ccc2c(c1)OCO2 (centres unmarked) | 3.51 |
| CCOc1cc(/C=C/c2nc3ccccc3s2)ccc1OCC(=O)N1CCOCC1 | 2.16 |
| CC(C)C1Oc2ccccc2N(CC(=O)N(Cc2ccccn2)CC2CCCO2)C1=O (centres unmarked) | 4.71 |
| COc1cc2c(cc1OC)C1(CCCC1)C(N)=C2C#N | 11.4 |
| CCc1ccc(NC(=O)CCc2ccc(C)o2)cc1 | 17.4 |
| CC(C)Oc1ccc(C(=O)O)c(C(=O)O)c1 | 0.713 |
| COCCCNC(=O)c1ccc(CS(=O)(=O)c2ccc(Br)cc2)o1 | 1.99 |
| CNC(=O)NC(=O)C(C)OC(=O)c1c(C)noc1C (centres unmarked) | 5.52 |
| CC(=O)N1N=C(c2ccccc2)CC1c1ccc(F)cc1 (centres unmarked) | 10.2 |
| CCOC(=O)N1CCN(C(=S)NC(=O)c2ccc(F)c(F)c2)CC1 | 2.95 |
| CN1CCN(CC(O)Cn2c3ccccc3c3ccccc32)CC1.O=C(O)C(=O)O (centres unmarked) | 8.65 |
| COc1ccc(/C=N/NC(=O)CN(C2=NS(=O)(=O)c3ccccc32)c2ccccc2)cc1 | 11.1 |
| O=C(CSCc1c(F)cccc1Cl)Nc1cccnc1 | 10.5 |
| CN(C)C(=O)c1ccc(-n2cnc3ccccc3c2=O)cc1 | 13.6 |
| CCN(c1ccc(OC)cc1)S(=O)(=O)c1nnc(NC(=O)COc2ccc(F)cc2)s1 | 8.23 |
| CCC(C)c1ccc(OCC(=O)Nc2ccc(CN3CCOCC3)cc2)cc1 (centres unmarked) | 12.8 |
| O=C(O)CSc1nnc(COc2ccc([N+](=O)[O-])cc2)n1-c1ccccc1 | 9.16 |
| Cc1ccc(F)cc1NCC(=O)Nc1ccc(Br)cc1 | 14.2 |
| CC(=O)SC(C)CC(=O)NCc1ccccc1 (centres unmarked) | 18.2 |

| SMILES | hERG current change (%, negative = inhibition) at 1uM [%] |
| --- | --- |
| CN=C(c1ccccc1)c1c(C)cccc1C | 6.34 |
| CC(C)N(CCCNC(=O)c1ccc(N2CCCC2=O)cc1)Cc1ccccc1 | 9.08 |
| COC(=O)C1=C(c2ccc3ccccc3c2)C[C@@H]2CC[C@H]1N2C(=O)N1CCCC1 | 11.4 |
| CC(C)(C)c1ccc(CS(=O)(=O)CC2(O)CCN(C(=O)c3cccc(C(F)(F)F)c3)CC2)cc1 | -4.37 |
| Cc1ccccc1N=C1NN=C(c2ccccc2F)CS1 | 8.2 |
| CN1CCN(CCNC(=O)Cn2c(=O)c3cccn3c3ccc(F)cc32)CC1 | 8.3 |
| CC(Sc1nc2ccccc2o1)C(=O)O (centres unmarked) | 6.76 |
| CSc1ncccc1C(=O)OCC(=O)NC(N)=O | 11.8 |
| Cc1ccccc1-n1c(SCc2ccccn2)nc2n[nH]c(C)c2c1=N | 5.65 |
| O=C(Cc1ccc(Cl)cc1)c1c[nH]c(C(=O)NCCCN2CCOCC2)c1 | -7.06 |
| CCCCOc1ccc(C(=O)N2CCCC2)cc1 | -0.0678 |
| Cc1ccc(OCC(O)CN2CCCC2)cc1 (centres unmarked) | 16.4 |
| Clc1ccccc1Nc1ncnc(-n2cccc2)n1 | 0.742 |
| Cc1nc(NCCc2ccc(Cl)cc2)c2nnn(Cc3ccccc3)c2n1 | 14.3 |
| CC(C)(C)OC(=O)N1CCC(NC(=O)c2[nH]cnc2C(=O)Nc2cccc(Cl)c2)CC1 | 4.09 |
| COc1ccc(NC(=O)CNC(=O)Cc2cccc3ccccc23)c(OC)c1 | 10.4 |
| CC(C)CCn1c(N2CCC(C(N)=O)CC2)nc2c1c(=O)[nH]c(=O)n2C | 9.76 |
| COC(=O)c1cccc(NC(=S)N2CCCCC2)c1 | 11.8 |
| COc1ccc2cc(CN(C(=O)Nc3ccccc3OC)C3CCCC3)c(=O)[nH]c2c1 | 0.809 |
| CC(NC(=O)CN1CCc2ccccc21)c1ccccc1 (centres unmarked) | 9.82 |
| O=c1cc(N2CCCCC2)c(-c2ccccc2)nn1Cc1cccc(Cl)c1 | 1.98 |
| CC(C)(C)c1cc(CN2CCC(O)CC2)cc(C(C)(C)C)c1O | -46.8 |
| CC(C)=CCC(C)(C)C1OCCN1C(=O)Nc1ccccc1 (centres unmarked) | -5.15 |

| SMILES | hERG current change (%, negative = inhibition) at 1uM [%] |
| --- | --- |
| CCC(Sc1nc2ncccc2[nH]1)C(=O)N1CCOCC1 (centres unmarked) | -9.13 |
| O=C(Nc1ccccc1C(=O)N1CCOCC1)c1cccnc1 | 4.41 |
| Cc1ccc(N=Cc2cc(Cl)cc(Cl)c2O)nc1 | -1.54 |
| CCOc1cc(N2CCCC2)ccc1[N+](=O)[O-] | 5.99 |
| O=C(COC(=O)c1ccc(O)cc1)Nc1cccc(S(=O)(=O)NC2=NCCCCC2)c1 | 10.1 |
| CN(C)S(=O)(=O)NCCNc1ccc(C(F)(F)F)cc1[N+](=O)[O-] | 6.51 |
| Cc1cc(N2C(=O)c3ccc(C(=O)Nc4ccc(O)cc4C(=O)O)cc3C2=O)no1 | -6.36 |
| CNC(=O)c1c(NC(=O)c2ccc(N3C(=O)CCC3=O)cc2)sc2c1CCC(C)C2 (centres unmarked) | 8.24 |
| NC(=O)COC(=O)c1cccc(NS(=O)(=O)/C=C/c2ccccc2)c1 | -7.53 |
| S=C(NCC1CCCO1)N1CCN(c2cccc(Cl)c2)CC1 (centres unmarked) | 9.39 |
| CCCCC/C=N\NC(=O)Cc1ccc([N+](=O)[O-])cc1 | 16.6 |
| CN(CCC#N)S(=O)(=O)c1cc2c3c(c1)CCN3C(=O)CC2 | 31.5 |
| CCn1ncc(Cl)c1C(=O)NC(=S)Nc1ccccc1Br | 21.1 |
| CN(C)c1cncc(C(=O)O)c1 | 7.94 |
| OCCC1CN(Cc2cc(F)ccc2F)CCN1CCCc1ccccc1 (centres unmarked) | -47.2 |
| CCCc1cc(=O)[nH]c(-n2[nH]c3c(c2=O)CCCC3)n1 | 11.5 |
| Cc1cc(C)c2[nH]c(O)c(N=NC(=O)c3cc4c(s3)CCCC4)c2c1 | 15.5 |
| CC(=O)Nc1ccc(-c2csc(Nc3ncccn3)n2)cc1 | -3.78 |
| CCCCc1ccc(NC(=O)CSc2nc(=O)n(CCN(C)C)c3c2CCC3)cc1 | 0.557 |
| Cc1ccc(NC(=O)c2cc(NC(=O)C3CC=CCC3C(=O)O)ccc2N2CCOCC2)cc1 (centres unmarked) | 8.51 |
| CSc1nc(NC(C)(C)C)nc(Oc2ccc(=O)n(C)n2)n1 | -2.14 |
| CCOC(=O)C1CCCN(S(=O)(=O)c2cnc(Cl)c(Br)c2)C1 (centres unmarked) | 12 |
| CC1CCCC(C)N1C(=O)COC(=O)c1cc([N+](=O)[O-])ccc1N1CCOCC1 (centres unmarked) | 8.73 |
